Experimental findings from publication PMC4336329 (PLoS ONE, 2015) are described below.

In all, about 310,000 compounds went through this assay and about 2,200 (0.71%) showed an effect of 50% or more. Effects have a minus sign here. Some of the results follow.

For the assay, the target named is human ether-à-go-go-related gene (hERG) potassium channel (human, UniProt Q12809). The assay can be described thus: primary screen, population patch clamp on CHO cells stably expressing hERG.
Sequence of human ether-à-go-go-related gene (hERG) potassium channel (Q12809 whole entry, looked up): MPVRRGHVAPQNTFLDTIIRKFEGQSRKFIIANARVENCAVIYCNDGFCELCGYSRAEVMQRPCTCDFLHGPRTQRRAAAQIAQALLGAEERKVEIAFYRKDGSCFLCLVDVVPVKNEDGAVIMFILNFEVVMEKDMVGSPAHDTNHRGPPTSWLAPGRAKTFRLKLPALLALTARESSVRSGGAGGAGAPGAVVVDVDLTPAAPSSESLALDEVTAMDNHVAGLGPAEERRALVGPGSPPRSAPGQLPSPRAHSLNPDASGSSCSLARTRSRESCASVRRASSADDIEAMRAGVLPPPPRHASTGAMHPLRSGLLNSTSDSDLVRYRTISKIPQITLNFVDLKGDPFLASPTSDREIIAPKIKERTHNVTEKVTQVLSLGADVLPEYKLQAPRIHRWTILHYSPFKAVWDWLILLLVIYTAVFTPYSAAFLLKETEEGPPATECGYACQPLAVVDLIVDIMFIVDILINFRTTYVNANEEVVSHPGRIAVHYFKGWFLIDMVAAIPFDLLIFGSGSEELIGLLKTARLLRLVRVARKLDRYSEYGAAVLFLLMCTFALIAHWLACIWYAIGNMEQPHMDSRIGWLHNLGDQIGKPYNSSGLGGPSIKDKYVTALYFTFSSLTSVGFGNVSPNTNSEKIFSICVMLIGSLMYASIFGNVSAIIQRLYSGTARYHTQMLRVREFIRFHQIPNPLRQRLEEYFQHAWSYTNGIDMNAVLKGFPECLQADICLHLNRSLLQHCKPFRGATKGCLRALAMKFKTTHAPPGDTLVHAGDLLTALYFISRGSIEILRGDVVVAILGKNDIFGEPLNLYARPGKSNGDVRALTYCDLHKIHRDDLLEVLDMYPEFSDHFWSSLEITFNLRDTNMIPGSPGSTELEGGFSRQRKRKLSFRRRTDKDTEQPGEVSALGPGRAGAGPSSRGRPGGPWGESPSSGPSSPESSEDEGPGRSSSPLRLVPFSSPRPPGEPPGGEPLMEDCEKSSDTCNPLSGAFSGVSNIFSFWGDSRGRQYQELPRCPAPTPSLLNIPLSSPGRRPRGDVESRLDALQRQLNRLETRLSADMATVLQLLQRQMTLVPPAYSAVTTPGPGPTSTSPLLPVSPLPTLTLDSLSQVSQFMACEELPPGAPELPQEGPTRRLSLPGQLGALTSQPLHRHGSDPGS
For the compound `Cc1c(C(=O)N(C)Cc2ccccc2)oc2c(Cl)cccc12`, the “hERG current change (%, negative = inhibition) at 1uM” value was found to be 4.36%. Under `CCOC(=O)C1(S(=O)(=O)c2ccccc2)CCN(Cc2ccc(Cl)cc2)CC1` stands 17.3%; under `CCc1ccc(NP(=O)(Oc2ccccc2F)Oc2ccccc2F)cc1`, 12.1%.

For the compound `CC(C)NC(=S)Nc1ccc(S(=O)(=O)Nc2ncccn2)cc1`, the “hERG current change (%, negative = inhibition) at 1uM” value turned out to be 13.8%. For `Cc1nc2ccc(NC(=O)CS(=O)(=O)c3ccc(F)cc3)cc2s1`, the “hERG current change (%, negative = inhibition) at 1uM” value was 14.6%.

Take `CC(C)CC(=O)c1c[nH]c(C(=O)NCCCn2ccnc2)c1`: the “hERG current change (%, negative = inhibition) at 1uM” value stood at 13.1%. Take `Cc1[nH]c(C)c(S(=O)(=O)Nc2ccc(F)cc2Cl)c1C(=O)N1CCCC1`: the “hERG current change (%, negative = inhibition) at 1uM” value is on record as 10.5%. As to `NC(=O)c1nc(C2CCCCC2)nc2c1[nH]c(=O)n2-c1ccc(F)cc1`, the “hERG current change (%, negative = inhibition) at 1uM” value is given as 5.73%. Under `COc1ccc(C(=O)Nc2cc(-c3ccc(C)cc3)no2)cc1` stands 15.2%. On to `O=C(CSc1nc(-c2ccccc2)cs1)Nc1nccs1`, for which the “hERG current change (%, negative = inhibition) at 1uM” value is reported as 9.24%. Consider `O=C(Nc1ccc2cn[nH]c2c1)c1c(Cl)cccc1Cl`, for which the “hERG current change (%, negative = inhibition) at 1uM” value was 5.34%. Under `CCN(C(=O)COC(=O)/C=C/c1cnc2ccccc2n1)C1CCS(=O)(=O)C1` (stereo not drawn) stands 0.316%; under `Cc1c2c(n3c(nc4ccccc43)c1C#N)N(CCN(C)C)CC2`, 0.184%; under `CCN1CCC(NCCc2ccc(F)cc2)CC1`, 13.6%. With `O=C(O)c1ccc(/C=N\Nc2ccccn2)cc1`, the “hERG current change (%, negative = inhibition) at 1uM” value is 12.3%. In the case of `S=C(Nc1cccc(Cl)c1)Nc1ccc2cn[nH]c2c1`, the “hERG current change (%, negative = inhibition) at 1uM” value was found to be 14%. As to `Cc1ccc(-n2nc3c(c2NC(=O)C(C)(C)C)CS(=O)(=O)C3)cc1`, the “hERG current change (%, negative = inhibition) at 1uM” value stood at 11%. As for `COc1cc(OC)cc(C(=O)NC2CC(C)(C)NC(C)(C)C2)c1.Cl`, the “hERG current change (%, negative = inhibition) at 1uM” value was 17%.

Regarding `Cc1ccc(N2CC(C)Cn3c2nc2c3c(=O)[nH]c(=O)n2C)cc1C` (stereo not drawn), the “hERG current change (%, negative = inhibition) at 1uM” value turned out to be 0.855%. On to `Cc1nn(Cc2ccccc2)c(Cl)c1C(=O)NCCc1ccc(Cl)cc1`, for which the “hERG current change (%, negative = inhibition) at 1uM” value was found to be 3.27%. Regarding `Cn1cc(S(=O)(=O)Nc2ccc(F)cc2F)c(=O)n(C)c1=O`, the “hERG current change (%, negative = inhibition) at 1uM” value is recorded as 12.9%.

Take `CC(=O)Nc1ccc(NC(=O)COc2ccc(Cl)cc2Cl)cc1`: the “hERG current change (%, negative = inhibition) at 1uM” value is 11.5%.

For `O=C(c1ccc(F)cc1)N1C2CCC1CC(O)(c1ccc(F)cc1)C2` (stereo not drawn), the “hERG current change (%, negative = inhibition) at 1uM” value was -1.39%. Regarding `Nc1nc(N2CCN(C(c3ccccc3)c3ccccc3)CC2)n[nH]1`, the “hERG current change (%, negative = inhibition) at 1uM” value turned out to be 11.6%. For `Cc1ccc(C(=O)NCC(=O)O)o1` the value was 3.85%; for `COC(=O)c1ccc(NC(=O)c2ccc(NS(=O)(=O)c3cccc4cccnc34)cc2)cc1`, 12.6%; for `CN1CCN(c2ccc([N+](=O)[O-])cc2NC(=O)c2ccco2)CC1`, -22.4%. For `Cc1ccc(-n2nc3c(=O)n(CC(=O)NCCCc4ccccc4)nc(C)c3c2C)cc1` the value was 20.2%; for `Cc1ccc(-c2noc(-c3cc4ccccc4oc3=O)n2)cc1`, 3.43%; for `COc1ccc2cc3cc(C(=O)NCc4cccs4)oc3nc2c1`, 5.18%.

For `O=C(N/N=C/c1cccnc1)c1cccc(N2CCCC2=O)c1`, the “hERG current change (%, negative = inhibition) at 1uM” value is 12.4%.

In the case of `CCCOc1cccc(C2C(C(=O)c3cc4ccccc4o3)=C(O)C(=O)N2c2cc(C)on2)c1` (stereo not drawn), the “hERG current change (%, negative = inhibition) at 1uM” value worked out at 15.5%. As to `COc1ccc2[nH]cc(CCNC(=O)CCC3CCCCC3)c2c1`, the “hERG current change (%, negative = inhibition) at 1uM” value amounted to 1.77%. For `COc1ccc(C(=O)CSc2nnc(NC(=O)C3CC(=O)N(c4ccccc4)C3)s2)cc1` (stereo not drawn), the “hERG current change (%, negative = inhibition) at 1uM” value is given as -2.23%. As for `COc1ccc(Cc2noc(-c3ccccc3)n2)cc1OC`, the “hERG current change (%, negative = inhibition) at 1uM” value was -14.4%. As to `CN(CCC#N)C(=S)Nc1ccc(F)cc1`, the “hERG current change (%, negative = inhibition) at 1uM” value is recorded as 11.9%.

As for `CCC(C)[C@H](NC(=O)NCc1ccc(S(N)(=O)=O)cc1)C(=O)O` (stereo partly drawn), the “hERG current change (%, negative = inhibition) at 1uM” value is listed as 9.74%. Under `COc1ccc(N2C(=O)CC(NNC(=O)c3cccnc3)C2=O)cc1` (stereo not drawn) stands 13.9%; under `CCn1c2ccccc2c2cc(NC(=O)COC(=O)c3ccccc3F)ccc21`, 2.76%.

On to `COc1ccc(/C=N/n2cnn(Cc3ccccc3Cl)c2=S)cc1OC`, for which the “hERG current change (%, negative = inhibition) at 1uM” value is recorded as 9.09%.

As to `Nc1nonc1C(=O)N/N=C/c1ccc(-c2cccc([N+](=O)[O-])c2)o1`, the “hERG current change (%, negative = inhibition) at 1uM” value worked out at 2.53%. For `CCCCCC(=O)Nc1cc2[nH]c(=O)cc(COC)c2cc1C` the value was 2.39%; for `COc1ccc(/C=C/c2nnc(NC(=O)CC(C)C)s2)cc1`, 13.1%; for `Cc1cc(C)c(C#N)c(Nc2ccc(F)cc2)n1`, 5.61%. For `CCOCCCn1c(=S)[nH]c2cc(C(=O)NCCc3ccc(OC)c(OC)c3)ccc2c1=O`, the “hERG current change (%, negative = inhibition) at 1uM” value came to 18.6%. For `CCOC(=O)CC1=C(C#N)C(c2cccnc2)C(C(=O)OCC)=C(N)O1` (stereo not drawn) the value was 12.8%; for `COCCN1C=C2C(=O)C(C)(OC(=O)c3cccs3)C(=O)C=C2C=C1CCCC(=O)OC` (stereo not drawn), 11.9%; for `O=C(COC(=O)c1ncc(Cl)c(Cl)c1Cl)NC(=O)NCc1ccccc1`, -9.22%. Under `Cc1ccnc2nc(C(=O)OCCOc3ccccc3)nn12` stands 5.02%. Turning to `NC(=O)Nn1c(CCC(=O)O)ccc1-c1ccc(Br)cc1`, the “hERG current change (%, negative = inhibition) at 1uM” value was found to be 9.49%. As for `CC(=O)OCCCn1c(C)[n+](C)c2cc(Cl)c(Cl)cc21.[I-]`, the “hERG current change (%, negative = inhibition) at 1uM” value was 10.8%. In the case of `O=Cc1ccc(OC(=O)/C=C/c2ccccc2)cc1`, the “hERG current change (%, negative = inhibition) at 1uM” value is on record as 12%. For the compound `CCc1cccc(C)c1NC(=O)CSc1nnc(CCCOc2ccc(Cl)cc2Cl)n1C`, the “hERG current change (%, negative = inhibition) at 1uM” value was determined as 6.23%.

Consider `CCOC(=O)c1nnc2c(Br)c(-c3ccccc3)nn2c1C`, for which the “hERG current change (%, negative = inhibition) at 1uM” value is on record as 5.79%.

For `FC(F)(F)c1cnc(N2CCCN(C(=S)Nc3ccccc3)CC2)c(Cl)c1`, the “hERG current change (%, negative = inhibition) at 1uM” value is reported as 16.5%.

In the case of `CCOC(=O)CSc1n[nH]c(NS(=O)(=O)c2ccccc2C(F)(F)F)n1`, the “hERG current change (%, negative = inhibition) at 1uM” value was found to be 4.75%. Under `CN(C(=O)COC(=O)c1ccccc1Cc1ccccc1)C1CCS(=O)(=O)C1` (stereo not drawn) stands -3.46%.
